Measurements published in ChEMBL document CHEMBL4888484, “Replenishing the malaria drug discovery pipeline: Screening and hit evaluation of the MMV Hit Generation Library 1 (HGL1) against asexual blood stage Plasmodium falciparum ,using a nano luciferase reporter read-out” (2022).
Screen size: about 150,000 compounds; about 540 (0.36%) showed an effect of 50% or more. The list shows a part of the results.

These compounds were tested on Plasmodium falciparum (assay: Primary screen in NF54 nanoGlo assay, in single point, at 2uM, 72h; a lower Z score goes with more inhibition). Conditions: timepoint 72 hour.
Type: functional, Erythrocyte
With `CN(C)c1nc2c(c(N3CC=CCC3)n1)CCN(C1CCOCC1)CC2` the “% Inhibition” value was -18% and the Z score was 1.6. With `Cn1ncc2c(Nc3ccc4c(c3)OCO4)ncnc21` the “% Inhibition” value was 10% and the Z score was -1.14. `COCCCN1CCN(C(=O)Nc2cccc3ncccc23)CC1` was tested, and the “% Inhibition” value was -4% and the Z score was 0.82. `Cc1n[nH]c(C2CN(CC3CCCCO3)CCO2)n1` (stereo not drawn) was tested, and the “% Inhibition” value was -12% and the Z score was 1.22. `O=C(Nc1nnc(C2CC2)s1)N1CCN(Cc2ccccc2)C2(CCCCC2)C1` was tested, and the “% Inhibition” value was 2% and the Z score was -0.38. In the case of `CCCc1cnc(C)nc1N1C[C@H](c2ccc(OC)cc2)[C@@H](N)C1`, the “% Inhibition” value is reported as -5% and the Z score is reported as 0.59. In the case of `CC[C@H](NC(=O)c1cncs1)c1ncnn1C`, the “% Inhibition” value is reported as -6% and the Z score is reported as 0.84. `Cn1ncnc1-c1ccnc(NC2(c3ccccc3)CC2)n1` was tested, and the “% Inhibition” value was -6% and the Z score was 0.71. With `CCCc1nc2[nH]nc(N)c2c2c1CCC2` the “% Inhibition” value was 14% and the Z score was -1.76. `Cc1nc2ccccc2n1Cc1cc(C(=O)N[C@@H](C)C(N)=O)n[nH]1` was tested, and the “% Inhibition” value was -20% and the Z score was 1.83. For `O=S(=O)(NC1CCCN(CCN2CC3CCC(C2)O3)C1)c1cccc(F)c1` (stereo not drawn), the “% Inhibition” value was -11% and the Z score was 1.78. In the case of `O=C(Cc1cnn(-c2ccccc2)n1)N1CCOC2CCCC21` (stereo not drawn), the “% Inhibition” value is reported as -2% and the Z score is reported as 0.4. For `Cc1nnc(-c2cc(C(C)C)n(-c3ccc(C(=O)N4CCC[C@H](C)C4)cc3)n2)o1`, the “% Inhibition” value was -11% and the Z score was 1.74. `CN(C)S(=O)(=O)N(C)Cc1ccc2nsnc2c1` was tested, and the “% Inhibition” value was -11% and the Z score was 2.26. With `O=C(Cn1ncn2nc(-c3ccccc3)cc2c1=O)N1CCN(c2ccccn2)CC1` the “% Inhibition” value was -21% and the Z score was 1.86. In the case of `COc1cc(NC(=O)c2cnc(N3CCN(C)CC3)nc2C)cc(OC)c1`, the “% Inhibition” value is reported as -8% and the Z score is reported as 1.28. `Cc1cccc(S(=O)(=O)N2CCn3ncc(Br)c32)c1` was tested, and the “% Inhibition” value was 0% and the Z score was -0.06. For `O=C(NC1CCCC1)c1cc2c(F)cccc2s1`, the “% Inhibition” value was 2% and the Z score was -0.27. In the case of `O=C(NCCC1=CCCCC1)c1coc(NC(=O)c2cnccn2)n1`, the “% Inhibition” value is reported as 0% and the Z score is reported as 0.01. `O=C(Nc1nncs1)NC1(CO)CCCC1` was tested, and the “% Inhibition” value was -2% and the Z score was 0.46. With `CCN(CC)CCN(C)C(=O)[C@H]1CCCC[C@H]1C(=O)NC(C)(C)C` the “% Inhibition” value was 4% and the Z score was -0.52. In the case of `Cc1cc2cc(NC(=O)N(Cc3ccncc3)C3CCN(C)CC3)ccc2o1`, the “% Inhibition” value is reported as 19% and the Z score is reported as -2.54. For `COCC(NC(=O)N1CCCC(Cc2noc(C)n2)C1)C1CCCO1` (stereo not drawn), the “% Inhibition” value was -3% and the Z score was 0.63. With `CN(Cc1nnc[nH]1)S(=O)(=O)c1ccc2c(c1)OCCCO2` the “% Inhibition” value was 2% and the Z score was -0.22. With `COc1ccc(/C=C/CN2C[C@@H]3CC[C@H]2CN(Cc2c(C)noc2C)C3)cc1` the “% Inhibition” value was -2% and the Z score was 0.3. `O=C(Cc1ccccc1)Nc1cc(NC(=O)Cc2ccccc2)cc(C(=O)O)c1` was tested, and the “% Inhibition” value was 0% and the Z score was -0.06. `CN(CCS(=O)(=O)c1ccccc1)[C@H]1CCS(=O)(=O)C1` was tested, and the “% Inhibition” value was 1% and the Z score was -0.15. In the case of `Clc1ccc(COc2cccc(CNCc3ccc4c(c3)OCO4)c2)cc1`, the “% Inhibition” value is reported as 3% and the Z score is reported as -0.35. For `CCn1c([C@H]2CCCN(C(=O)Cc3nc4ccccc4o3)C2)n[nH]c1=O`, the “% Inhibition” value was -16% and the Z score was 3.13. For `CC(C)(C)NC(=O)Cn1c(=O)n(CCc2cccs2)c(=O)c2sccc21`, the “% Inhibition” value was -19% and the Z score was 2.42. `CCc1ccc(CN2C[C@@H]3NC(=O)CN(C)C(=O)c4ccc(C)c(c4)Oc4cccc(c4)CO[C@H]3C2)nc1` was tested, and the “% Inhibition” value was 1% and the Z score was -0.3. In the case of `Cc1cc2n(n1)CCCN(C(=O)Cn1cnc3ccccc3c1=O)C2`, the “% Inhibition” value is reported as 4% and the Z score is reported as -0.7. In the case of `Cc1ccc(C)c(S(=O)(=O)N(C2CC2)[C@H]2CCS(=O)(=O)C2)c1`, the “% Inhibition” value is reported as -1% and the Z score is reported as 0.13. In the case of `CNC(=O)CCCN(C)C(=O)c1ccc(-c2ncn[nH]2)cc1`, the “% Inhibition” value is reported as -13% and the Z score is reported as 1.3. With `Cn1nc(CCC(=O)N2CCOCC2)c2c1CCN(C(=O)c1n[nH]c3ccccc13)C2` the “% Inhibition” value was -13% and the Z score was 1.69. For `CCOC(=O)N1CCN(c2nc(Nc3ccc(C)cc3)c3nn[nH]c3n2)CC1`, the “% Inhibition” value was -21% and the Z score was 2.79. For `O=C(NC[C@H]1CCN(CCC(F)(F)F)C1)c1ccc2c(c1)OCO2`, the “% Inhibition” value was 0% and the Z score was 0.08. For `CCN(C)C[C@@H]1CN(Cc2ccc3ccccc3c2)C[C@@H]1CO`, the “% Inhibition” value was -14% and the Z score was 2.43. With `CC(=Cc1ccccc1)CN(C)S(=O)(=O)N(C)[C@@H](C)CC#N` the “% Inhibition” value was -5% and the Z score was 0.77. In the case of `C#CCN(C(=O)CCc1ccc(F)cc1)[C@H]1CCS(=O)(=O)C1`, the “% Inhibition” value is reported as -11% and the Z score is reported as 1.66. `COCCOc1cc(C(=O)Nc2onc3c2CCCC3)ccn1` was tested, and the “% Inhibition” value was -12% and the Z score was 2.23. With `Cc1cnc(Cn2cnc(-c3ccccc3)c2-c2cc(C)n[nH]2)cn1` the “% Inhibition” value was -13% and the Z score was 1.7. With `CNC(=O)[C@@H]1CC[C@](C)(C(=O)NCCc2nc(C)cc(C)n2)C1(C)C` the “% Inhibition” value was -7% and the Z score was 1.13. For `Fc1cccc(-c2ccc(N3CCC(NCc4ncc[nH]4)CC3)cc2)c1`, the “% Inhibition” value was -8% and the Z score was 0.76. In the case of `O=C(CCC(F)(F)F)N[C@H]1CC(=O)N(C2CCCCCC2)C1`, the “% Inhibition” value is reported as 4% and the Z score is reported as -0.81. With `Cn1nccc1CN1C(=O)N[C@]2(CCc3cc(Cl)ccc32)C1=O` the “% Inhibition” value was -6% and the Z score was 0.89. In the case of `Cc1cccc(N2C(=O)C3ON(c4ccccc4)C(c4c(C)[nH]c5ccccc45)C3C2=O)c1` (stereo not drawn), the “% Inhibition” value is reported as -7% and the Z score is reported as 1.09. For `COc1ccc(CCC(=O)Nc2cc(C)ns2)cc1`, the “% Inhibition” value was 2% and the Z score was -0.32. With `CC(C)(C)N1C[C@@H](CNC(=O)c2cncnc2)CC1=O` the “% Inhibition” value was 10% and the Z score was -1.61. `c1cc(-c2nc3c(c(NC[C@H]4CCCO4)n2)CCC3)ccn1` was tested, and the “% Inhibition” value was -9% and the Z score was 1.38. With `N#Cc1nccnc1N[C@H]1CCCC2(C1)OCCO2` the “% Inhibition” value was -3% and the Z score was 0.41. With `CN(Cc1nc(-c2ccncc2)no1)C(=O)[C@H]1CCCN(Cc2ccco2)C1` the “% Inhibition” value was -3% and the Z score was 0.56. In the case of `Cc1nnsc1CN(C)C(=O)c1cccc(F)c1`, the “% Inhibition” value is reported as -14% and the Z score is reported as 2.08. In the case of `Cn1cc(C(=O)N2CC[C@H](c3cccc(C(F)(F)F)c3)C2)cn1`, the “% Inhibition” value is reported as -15% and the Z score is reported as 1.77. For `Cc1nn(CC(F)F)cc1C(=O)Nc1ccc2c(c1)NC(=O)C2`, the “% Inhibition” value was -1% and the Z score was 0.14. `Cc1n[nH]c(C)c1[C@H](C)N(C)C(=O)c1csc2nc(-c3ccccc3)cn12` was tested, and the “% Inhibition” value was -13% and the Z score was 1.16. `Cc1cnn(CCNC(=O)c2cn(C)c(C)cc2=O)c1` was tested, and the “% Inhibition” value was -7% and the Z score was 1.09. For `CC(C)[C@@](C)(C#N)NC(=O)CN(C)C1CCCCC1`, the “% Inhibition” value was 0% and the Z score was -0.05. In the case of `Cc1cc(COCCc2c[nH]nn2)on1`, the “% Inhibition” value is reported as -11% and the Z score is reported as 1.13. In the case of `Cc1ncc(Cl)c(C(=O)N2C[C@H](C)[C@@](O)(C3CC3)C2)n1`, the “% Inhibition” value is reported as -11% and the Z score is reported as 1.97. In the case of `Cc1ccc(C(=O)N2CCN(c3nc(-c4ccco4)nc4ccc(C)cc34)CC2)cc1`, the “% Inhibition” value is reported as -1% and the Z score is reported as 0.07. `O=C(CCN1CCCCO1)N[C@H]1CCOC[C@@H]1Oc1ccccn1` was tested, and the “% Inhibition” value was -8% and the Z score was 1.26. With `COc1nccnc1O[C@H]1CCN(C(=O)c2ccc3ncsc3c2)C1` the “% Inhibition” value was -16% and the Z score was 1.81. `CN(CCc1ccccc1)Cc1cc(C(=O)NCCO)no1` was tested, and the “% Inhibition” value was -11% and the Z score was 1.63. For `COc1ccc(-n2nc(C)c(CCC(=O)N3CCOCC3)c2Oc2ccc(F)cc2)cc1`, the “% Inhibition” value was 5% and the Z score was -0.49. In the case of `CCn1nc([C@H]2CCOC2)nc1-c1n[nH]c2c1CN(C)CC2`, the “% Inhibition” value is reported as -9% and the Z score is reported as 1.85. With `COc1ccc(CNC(=O)N2C3CCC2CC(=C2CC2)C3)cc1OC` the “% Inhibition” value was 8% and the Z score was -1.06. For `O=C(CCc1ccc(-c2ccc(Cl)cc2)[nH]1)NCc1cnn2cccnc12`, the “% Inhibition” value was -28% and the Z score was 2.49. With `COc1ccc(CC[C@H](C)NC(=O)CCNc2ncccn2)cc1` the “% Inhibition” value was 4% and the Z score was -0.49. In the case of `O=C(NCCCOCC(F)(F)F)N[C@H]1CCCC12CCOCC2`, the “% Inhibition” value is reported as -1% and the Z score is reported as 0.13. With `Cc1ccc(Nc2scnc2C(=O)O)cc1` the “% Inhibition” value was -5% and the Z score was 0.68. `CCCC(=O)N(CC1CCN(C2Cc3ccccc3C2)CC1)C[C@H]1CCCO1` was tested, and the “% Inhibition” value was -8% and the Z score was 1.51. In the case of `COc1ccc(CCNC(=O)c2c(C)c3c(n2Cc2cccc(C)c2)CCCC3)cc1OC`, the “% Inhibition” value is reported as -1% and the Z score is reported as 0.07. For `Cc1ccc(N(Cc2ccco2)S(=O)(=O)N(C)CC2CC2)cc1`, the “% Inhibition” value was -20% and the Z score was 1.68. In the case of `Cc1nnc2sc(-c3ccc(CNC(=O)c4ccc(C(C)(C)C)cc4)cc3)nn12`, the “% Inhibition” value is reported as -7% and the Z score is reported as 0.96. `O=S(=O)(NC(=C(F)F)C(F)(F)F)c1ccccc1` was tested, and the “% Inhibition” value was -3% and the Z score was 0.49. `O=C(c1ccc(Oc2ccccc2)o1)N1CC[C@@H](CO)[C@@H](O)C1` was tested, and the “% Inhibition” value was 3% and the Z score was -0.35. `c1ccc(-n2nc(C3CC3)cc2-c2nnc(-c3ccccn3)o2)cc1` was tested, and the “% Inhibition” value was -10% and the Z score was 1.65. In the case of `O=C1CC[C@](CCC(=O)N(Cc2ccccc2)CC2CC2)(Cc2ccco2)N1`, the “% Inhibition” value is reported as 1% and the Z score is reported as -0.17. For `CC(C)[C@@H]1CN(C)CCN1CCOC(C)(C)C`, the “% Inhibition” value was -23% and the Z score was 2.47. For `Cc1ccnc(NCc2snnc2C(C)C)n1`, the “% Inhibition” value was -16% and the Z score was 1.69. With `CCn1ncc(C(=O)N2CCc3ncc(C)cc32)c1Br` the “% Inhibition” value was -1% and the Z score was 0.1. In the case of `CCc1nnc2c(S(=O)(=O)Nc3ccc(C(C)C)cc3)cccn12`, the “% Inhibition” value is reported as 32% and the Z score is reported as -3.67. In the case of `CCN(CC)S(=O)(=O)c1ccc(=O)n(CC(=O)NC(c2ccccc2)c2ccccc2)c1`, the “% Inhibition” value is reported as -3% and the Z score is reported as 0.35.
